Experimental data as given in patent US5047433A, “N-alkyl derivatives of 2-amino-6,7-dimethoxy tetraline and pharmaceutical compositions having antihypertensive activity containing same” (Sigma-Tau Industrie Farmaceutiche Riunite S.p.A., priority 1986, dated 1991).
Structures can show the parent of a compound that is named as a salt. At least one read-out could not be matched to a standard name with certainty. Some entries repeat one wording, which the source may state once for all of them.

Tests used:
[1] = system: Normotensive cats; assay: Measure of arterial pressure in normotensive cats; assay type: in vivo, cat; conditions: anesthetized cats, crural vein
Description: Normotensive cats of either sex weighing 2.5-3.5 kgs were used in this test.
The animals fasted for 18 hours were anesthetized with Na Nembutal (30 mg/kg) and ethyl urethane (300 mg/kg i.p.). The crural vein and artery of the animals were cannulated, the former for administering the compounds, the latter for monitoring the arterial pressure. The arterial pressure was measured via a mercury gauge connected to a rotating kymograph.
The compounds were dissolved in sterile 0.9% saline and administered at physiological pH in a 0.5 ml/kg volume.

[2] = system: Hypertensive SHR rats; assay: Non-invasive measure of arterial pressure in genetically hypertensive (SHR) rats; assay type: in vivo, rat (male SHR); conditions: oral
Description: Male SHR rats (Charles River) of 4-6 months were used in this test. The compounds listed were dissolved in either 0.9% saline or twice distilled water and administered via the oral route (10-40 mg/5 ml/kg).
The animals, housed in individual cages at 23° C. and 60% humidity, had free access to food and drinking water. A BP recorder (Letica) equipped with a two-way polygraph was used. The systolic and diastolic pressure and the heart rate were recorded. The animals, a few days before the test began, were accustomed to be constrained on a heating plate (at 38° C.±1° C. for 20 minutes).
During the pre-tests, assessments were made at time 0 (8^30 -9^30 a.m.) and after 2 and 4 hours.
Every assessment was the average of 3-5 measures and the maximum residence time of the animal in the thermostatized chamber (for the whole test duration) was 40 minutes; the time interval between administrations of different doses of the same compound was 3 days.
Student's "t" test was used for assessing the differences with respect to the control group and its own 0 time.

Structure (SMILES): COc1cc2c(cc1OC)CC(NCC(O)c1ccc(O)cc1)CC2 (centres unmarked) [ST 558, 2-[(N-2-p-hydroxyphenyl-2-ethanol)amino]-6,7-dimethoxy tetraline hydrochloride]
- Arterial pressure in normotensive cats, hypotension ([1]; dose 1-4 mg/kg): 10-14 mm Hg
- Times of effect duration (hypotension in normotensive cats) ([1]; dose 1-4 mg/kg): L (long >30 minutes)

Structure (SMILES): COc1cc2c(cc1OC)CC(NCC(O)c1ccc(C)cc1)CC2 (centres unmarked) [ST 563, 2-[(N-2-p-methylphenyl-2-ethanol)amino]-6,7-dimethoxy tetraline]
- Arterial pressure in normotensive cats, hypotension ([1]; dose 1-2-4 mg/kg): 18-46 mm Hg
- Times of effect duration (hypotension in normotensive cats) ([1]; dose 1-2-4 mg/kg): L (long >30 minutes)

Structure (SMILES): COc1ccc(C(O)CN(CC2CC2)C2CCc3cc(OC)c(OC)cc3C2)cc1 (centres unmarked) [ST 565, 2-[(N-methylcyclopropyl, N-p-methoxy-phenyl-2-ethanol)amino]-6,7-dimethoxy tetraline hydrochloride]
- Arterial pressure in normotensive cats, hypotension ([1]; dose 0.5-1 mg/kg): 20-30 mm Hg
- Times of effect duration (hypotension in normotensive cats) ([1]; dose 0.5-1 mg/kg): B (short <5 minutes)

Structure (SMILES): CCCN(CC(O)c1ccccc1)C1CCc2cc(OC)c(OC)cc2C1 (centres unmarked) [ST 566, 2-[(N-propyl,N-phenyl-2-ethanol)amino]-6,7-dimethoxy tetraline hydrochloride]
- Arterial pressure in normotensive cats, hypotension ([1]; dose 0.01-1 mg/kg): 12-72 mm Hg
- Times of effect duration (hypotension in normotensive cats) ([1]; dose 0.01-1 mg/kg): B (short <5 minutes)

Structure (SMILES): COc1cc2c(cc1OC)CC(N(CC1CC1)CC(O)c1ccccc1)CC2 (centres unmarked) [ST 567, 2-[(N-methylcyclopropyl, N-phenyl-2-ethanol)amino]-6,7-dimethoxy tetraline hydrochloride]
- Arterial pressure in normotensive cats, hypotension ([1]; dose 1-4 mg/kg): 0-16 mm Hg
- Times of effect duration (hypotension in normotensive cats) ([1]; dose 1-4 mg/kg): B (short <5 minutes)
- Arterial pressure in hypertensive SHR rats ([2]; dose not given, 2 hours): -15 mm Hg

Structure (SMILES): CCCN(CC(O)c1ccc(C)cc1)C1CCc2cc(OC)c(OC)cc2C1 (centres unmarked) [ST 571, 2-[(N-propyl,N-2-p-methylphenyl-2-ethanol)amino]-6,7-dimethoxy tetraline hydrochloride]
- Arterial pressure in normotensive cats, hypotension ([1]; dose 1-2-4 mg/kg): 12-30 mm Hg
- Arterial pressure in hypertensive SHR rats ([2]; 20-40 mg/kg): 0 mm Hg

Structure (SMILES): COc1cc2c(cc1OC)CC(N(CC1CC1)CC(O)c1ccc(C)cc1)CC2 (centres unmarked) [ST 574, 2-[(N-methylcyclopropyl, N-p-methylphenyl-2-ethanol)amino]-6,7-dimethoxy tetraline hydrochloride]
- Arterial pressure in normotensive cats, hypotension ([1]; dose 1-2-4 mg/kg): 12-30 mm Hg
- Arterial pressure in hypertensive SHR rats ([2]; 20-40 mg/kg): 0 mm Hg

Structure (SMILES): CCN(CCc1ccccc1)C1CCc2cc(OC)c(OC)cc2C1 (centres unmarked) [ST 577, 2-[(N-ethyl, N-2-phenylethyl)amino]-6,7-dimethoxy tetraline hydrochloride]
- Arterial pressure in hypertensive SHR rats ([2]; 10-20 mg/kg): 0 mm Hg

Structure (SMILES): COc1ccc(C(O)CNC2CCc3cc(OC)c(OC)cc3C2)cc1 (centres unmarked) [ST 578, 2-[(N-2-p-methoxyphenyl-2-ethanol)amino]-6,7-dimethoxy tetraline hydrochloride]
- Arterial pressure in normotensive cats, hypotension ([1]; dose 1-2-4 mg/kg): 16-30 mm Hg

Structure (SMILES): COc1cc2c(cc1OC)CC(NCC(O)c1ccccc1)CC2 (centres unmarked) [ST 579, 2-[(N-2-phenyl-2-ethanol)amino]-6,7-dimethoxy tetraline hydrochloride]
- Arterial pressure in normotensive cats, hypotension ([1]; dose 1-2-4 mg/kg): 18-50 mm Hg
- Times of effect duration (hypotension in normotensive cats) ([1]; dose 1-2-4 mg/kg): L (long >30 minutes)

Structure (SMILES): CCN(CC(O)c1ccc(C(F)(F)F)cc1)C1CCc2cc(OC)c(OC)cc2C1 (centres unmarked) [ST 592, 2-[(N-ethyl, N-2-p-trifluoromethylphenyl-2-ethanol)-amino]-6,7-dimethoxy tetraline hydrochloride]
- Arterial pressure in normotensive cats, hypotension ([1]; dose 1-2-4 mg/kg): 0 mm Hg
